# Laboratory results as given in PubChem BioAssay AID1347416 (National Center for Advancing Translational Sciences (NCATS), 2020).
# Among all 4,100 compounds or so, about 1,600 (39%) were called active. This list was built around the results that the source calls inconclusive (neither active nor inactive); the mix of calls is not that of the screen. The call rests on the fitted dose curve; in most records, active means well fitted inhibition curve with a large enough effect; inconclusive means small, poorly fitted or top-dose-only effect; inactive means no such curve, though single readings can be large or run the other way. Potencies beside an inconclusive call are fits to weak or partial responses and may not hold up.
# Test: qHTS Validation assay for Inhibitors of Plasmodium falciparum Dd2 growth in vitro; further: nearly all actives have a fitted effect of over 70% in size
# Details: P. falciparum Dd2 in RBCs, SYBR Green growth, 72 h; series mostly up to 28.7 µM
# In short: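 P. falciparum Dd2-infected red blood cells (2.5% hematocrit, 0.3% parasitemia) grown 72 h at 37 °C under 5% O2 with compounds in a titration, 29 uM to 0.5 nM final. Growth read as SYBR Green-1 fluorescence after ~16 h lysis; artesunate 300 nM as positive control.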
# Potency means the concentration at half of the fitted maximal effect; tags describe the fitted curve by direction and shape.
row,Structure (SMILES),Potency
1,Cc1cc(NC(=O)c2cc(-c3ccco3)on2)nn1Cc1ccc(Cl)cc1,active: 8.41 µM
2,O[C@H]1CC[C@@H](Cc2cc(COc3ccccc3)on2)O[C@@H]1CNC1CCOCC1,"inconclusive: 30.6 µM [inhibitor, single point]"
3,Cc1nc(N2CCC(NC(=O)c3cc4ccccc4[nH]3)CC2)cc(C(F)(F)F)n1,"inconclusive: 16.8 µM [inhibitor, single point]"
4,Cn1c(=O)c2nc(SCC(=O)Nc3ccc(Cl)c(Cl)c3)n(C)c2n(C)c1=O,inactive
5,CCOC(=O)c1c(CN2CCOCC2)n(-c2ccccc2)c2cc(Br)c(O)cc12,"inconclusive: 2.99 µM [inhibitor, full curve]"
6,CCn1ccnc1CN(C)Cc1cn(Cc2ccccc2)nc1-c1ccc2c(c1)OCO2,"inconclusive: 10.6 µM [inhibitor, partial curve, poor fit]"
7,CCCc1nnc(NC(=O)c2cn(CC)c3cc(N4CCN(C)CC4)c(F)cc3c2=O)s1,"inconclusive: 8.41 µM [inhibitor, partial curve]"
8,COc1ccc(NC(=O)CSc2nc(-c3ccc(OC)cc3)[nH]c2-c2ccc(F)cc2)cc1,inactive
9,CCN(CC)S(=O)(=O)c1ccc(N2CCOCC2)c(NC(=O)COc2ccccc2C)c1,"inconclusive: 7.5 µM [inhibitor, single point]"
10,O=C(CCc1nc2cccnc2n1Cc1ccccc1)NCc1cccc(Cl)c1,inactive
11,Cc1ccc(NC(=O)CC2SC(=NC3CCCCC3)NC2=O)cc1 (configuration not stated),"inconclusive: 11.9 µM [inhibitor, partial curve]"
12,O=C(c1ccc(F)cc1)N1CCC(c2nn(Cc3ccccc3)c(=O)[nH]2)CC1,inactive
13,CCOc1ccc(-c2cc3c(=O)n(CCNC(=O)c4ccc(C#N)cc4)ccn3n2)cc1,inactive
14,Cc1nc2c(n1C1CCCCC1)C(=O)c1ccccc1C2=O,"inconclusive: 5.96 µM [inhibitor, full curve, poor fit]"
15,Cc1sc2c(c1C)c(=O)n(-c1cccc(C(F)(F)F)c1)c(=O)n2Cc1ccc(F)cc1,"inconclusive: 2.11 µM [inhibitor, full curve]"
16,CCOC(=O)c1ccc(NC(=O)c2ccco2)cc1,inactive
17,Cc1[nH]c2ccccc2c(=O)c1SC(F)(F)C(F)C(F)(F)F (configuration not stated),"inconclusive: 16.8 µM [inhibitor, single point]"
18,COc1ccc(CN2CC3(CCN(C(=O)Nc4ccc(OC)c(F)c4)CC3)C2=O)cc1,"inconclusive: 10.6 µM [inhibitor, partial curve]"
19,CCOC(=O)N1CCc2c(sc3c2c(=O)n(CCc2ccccc2)c(=O)n3Cc2c(F)cccc2Cl)C1,active: 2.66 µM
20,COc1ccc(N2CCN(c3oc(/C=C/c4cc(OC)c(OC)c(OC)c4)nc3C#N)CC2)cc1,"inconclusive: 2.66 µM [inhibitor, full curve]"
21,O=C(NC1CC1)c1ccc(CC2CCN(C(=O)c3ccc4ccccc4n3)CC2)cc1,"inconclusive: 15 µM [inhibitor, single point]"

row,Structure (SMILES),Potency
1,CCN(CC)CCN1C(=O)c2ccccc2NC1c1ccc(N(C)C)cc1 (configuration not stated),active: 4.22 µM
2,CCCC1c2nccn2CCCN1C(=O)c1cnco1 (configuration not stated),inactive
3,O=C(NCC1CCCN(Cc2cccc(-c3ccco3)c2)C1)c1cccs1 (configuration not stated),"inconclusive: 6.68 µM [inhibitor, partial curve]"
4,COc1ccc(Nc2cc(C)nc3nc(C)nn23)cc1Cl,"inconclusive: 16.8 µM [inhibitor, partial curve]"
5,O=C(c1ccc(Cl)s1)N1CCCC2(C1)Nc1cccnc1NC2=NC1CCCC1 (configuration not stated),"inconclusive: 13.3 µM [inhibitor, partial curve, poor fit]"
6,CCOc1ccccc1C(=O)Nc1nc2c(s1)CC(C)CC2 (configuration not stated),inactive
7,COCC1CN(Cc2ccc(Cl)c(F)c2)CC12CCNCC2 (configuration not stated),"inconclusive: 21.1 µM [inhibitor, single point]"
8,CCn1c(=O)c(=O)n(CC)c2cc(N3CCCCC3)c(NC(=O)c3ccc(Cl)cc3)cc21,"inconclusive: 7.5 µM [inhibitor, partial curve]"
9,CN(C)CCNCc1ccc(-c2ccccc2)o1,"inconclusive: 10.6 µM [inhibitor, partial curve]"
10,CC1CCN(S(=O)(=O)c2ccc3c(c2)C(=NO)c2cc(S(=O)(=O)N4CCC(C)CC4)ccc2-3)CC1,"inconclusive: 1.68 µM [inhibitor, full curve]"
11,O=C(NCC1CC1)c1cccc(OC2CN(Cc3cc(F)c(F)c(F)c3)C2)c1,inactive
12,COCCN1Cc2ccc(NCC(C)C)nc2C(C)(C(=O)Nc2cccc(F)c2)C1 (configuration not stated),"inconclusive: 27.3 µM [inhibitor, single point]"
13,CCc1ccc(C2Sc3ccccc3NC3=C2C(=O)c2ccccc23)cc1 (configuration not stated),"inconclusive: 10.6 µM [inhibitor, partial curve, poor fit]"
14,Clc1ccc(CN2CCOC[C@H](Oc3ccccc3)C2)cc1,"inconclusive: 17.2 µM [inhibitor, partial curve]"
15,CC1(c2cccnc2)N(CCOc2ccccc2)C(=O)OC12CCN(C(=O)Cc1cccc(F)c1)CC2 (configuration not stated),"inconclusive: 4.73 µM [inhibitor, partial curve, poor fit]"
16,CCN(CC)c1cc(C)nc2nc(-c3ccc(C)cc3)nn12,"inconclusive: 13.3 µM [inhibitor, single point]"
17,Cc1ccc(-c2csc3nc[nH]c(=O)c23)c(C)c1,inactive
18,CN1CCC(NC[C@H]2COCc3nc4cc(C(F)(F)F)ccc4n32)CC1,"inconclusive: 0.0043 µM [inhibitor, full curve, poor fit]"
19,O=C(NC1CC1)c1ccc(-c2ccc(N3CCCCCC3)nc2)cc1,"inconclusive: 21.1 µM [inhibitor, single point]"
20,Cc1ccc(-c2cc(N3CCCN(C(=O)c4sccc4C)CC3)n[nH]2)cc1C,"inconclusive: 21.1 µM [inhibitor, single point]"
21,CCN1CCN(C(=O)c2ccc3c(c2)N(Cc2c(F)cccc2Cl)C(=O)c2ccccc2S3)CC1,active: 0.0084 µM
